Assay results: the supplement of paper PMC3334620
Whole data set: some 33,000 sequences, median “E-score (-0.5 to 0.5)” near -0.035, cut for the highest 2% near 0.35. The list shows a part of the results.

molecular target: T1, Pdr3 (UniProt P33200); experiment: PBM E-score (8-mer binding enrichment) (E-score (-0.5 to 0.5)); higher = stronger / more preferred TF binding; most listed sequences are background and not binding sites; settings: protein concentration: 200 nM; construct: GST-full length
T1 sequence: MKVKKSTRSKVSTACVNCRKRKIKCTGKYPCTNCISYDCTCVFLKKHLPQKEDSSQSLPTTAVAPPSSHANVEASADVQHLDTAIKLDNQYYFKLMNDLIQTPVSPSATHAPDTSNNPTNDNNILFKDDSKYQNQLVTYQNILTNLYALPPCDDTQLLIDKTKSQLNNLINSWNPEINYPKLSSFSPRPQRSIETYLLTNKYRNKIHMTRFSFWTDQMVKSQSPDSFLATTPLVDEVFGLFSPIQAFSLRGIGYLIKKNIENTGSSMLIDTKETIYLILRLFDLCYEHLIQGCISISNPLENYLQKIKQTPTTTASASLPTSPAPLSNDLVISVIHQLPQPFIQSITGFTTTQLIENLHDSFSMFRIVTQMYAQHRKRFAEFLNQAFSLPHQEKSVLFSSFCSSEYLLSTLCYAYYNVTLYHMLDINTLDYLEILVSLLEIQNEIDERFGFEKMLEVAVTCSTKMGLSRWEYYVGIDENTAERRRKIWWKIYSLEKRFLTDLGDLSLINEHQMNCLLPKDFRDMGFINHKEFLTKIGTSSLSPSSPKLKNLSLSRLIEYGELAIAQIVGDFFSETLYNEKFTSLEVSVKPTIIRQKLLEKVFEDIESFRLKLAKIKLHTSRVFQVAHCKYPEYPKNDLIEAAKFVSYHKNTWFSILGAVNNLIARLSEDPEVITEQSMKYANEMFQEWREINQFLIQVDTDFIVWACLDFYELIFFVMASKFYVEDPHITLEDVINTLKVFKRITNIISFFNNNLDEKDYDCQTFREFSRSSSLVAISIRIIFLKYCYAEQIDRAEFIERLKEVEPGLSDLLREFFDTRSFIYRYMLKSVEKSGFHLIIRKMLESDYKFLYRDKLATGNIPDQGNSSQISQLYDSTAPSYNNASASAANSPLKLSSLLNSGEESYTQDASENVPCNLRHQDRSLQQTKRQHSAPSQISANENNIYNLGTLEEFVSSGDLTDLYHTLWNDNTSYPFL
Procedure, shortened: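 GST-tagged yeast TFs (full-length or DNA-binding domain) were made by PURExpress in vitro transcription/translation and applied at about 100-200 nM to universal all-10-mer Agilent arrays. The arrays were made double-stranded by primer extension, on fresh or once-stripped slides. Bound protein was detected with fluorescent anti-GST, and scans were normalised with masliner. Each ungapped eight-base word, pooled with its reverse complement, received an E-score (modified Wilcoxon-Mann-Whitney statistic) from the Universal PBM Analysis Suite.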

Sequence	PBM E-score
CCACTGAC	-0.18
CCGTTTCG	0.295
AATTCGAC	-0.296
ACAGTTCG	0.0917
CGCACCGA	-0.07
GATATCAC	-0.0175
CGTTGCAC	0.108
TGGACAAA	0.0216
ACGTGCCC	-0.0152
GCCGCCCA	0.165
GACTGCCA	0.0687
AGTCAAAG	-0.0639
ACGCACAA	-0.0592
AATGAAGG	-0.156
CCTAGAGC	-0.123
CACGCCTA	-0.242
CGGATTAC	0.18
GGCTTTCA	-0.0234
GTTTCACA	-0.114
CGTTGGAG	-0.136
TCTCTACA	-0.249
GCGGTCCC	0.121
TTAGGGAA	-0.152
CAGAGAAC	-0.202
AGGCACGA	-0.168

Sequence	PBM E-score
ATGAAAGC	0.0331
CCTCGATA	0.202
AGTCTGGA	-0.154
GCTTCCTA	-0.205
AACAAACG	-0.0956
CGCAACGC	0.158
GCGCACAC	0.128
CAGATTTC	-0.124
ACAGTTTA	-0.11
CAAGTCAC	-0.0661
GAGCACCC	0.0661
GGGGATAC	0.0434
CAAAATAA	0.0399
ACGTCCTC	-0.233
AGATACGC	-0.0323
CACATATC	-0.0189
ATCTGAGA	-0.119
GATGACCA	-0.0674
ATTCTACC	-0.0786
ATACAAGC	0.0244
CGACTGGC	0.0332
ACTTTATA	0.00216
ACATGTGA	-0.172
CAGGGTGG	-0.247
CTGTTGAC	-0.162

Sequence	PBM E-score
GTCAGGGA	-0.0697
AGCATAAC	-0.159
GCTCGGTA	0.123
TACGGATA	0.224
ATTGACTC	-0.0509
ATGTTCGA	-0.00896
CTTTGTCA	-0.0902
ACCGCAAG	0.0785
GCTTGAAA	-0.147
GCGCTTCC	0.265
ATAACGTC	-0.0105
GGCAGACA	0.0451
GCCCCAAA	-0.204
TCGCTTCA	-0.114
AATACACC	0.0523
CGACCTAG	0.0405
GATCATAC	-0.0477
AGGAATGG	-0.0494
AGACTTCC	0.0461
CGACGTAC	0.0357
CGTAGACG	-0.0298
CGCCCTAC	-0.181
AACAACTC	-0.144
GCGTGTAA	-0.198
ACGGTCCG	0.308

Sequence	PBM E-score
GGGCACAA	-0.0569
GTCGAAGA	-0.0177
CGTGCAAA	-0.153
GGCAAACA	0.0626
CCAGATCC	-0.0605
ATATGAGA	0.0704
CCCATTAG	-0.374
ACTAATTG	0.0304
GAACGTGC	0.0634
ACGTCGAG	0.0168
GAGAGTGC	-0.339
ACCGTGTA	-0.0766
CAATCCAC	-0.0656
TAAGCTGA	-0.00177
AACCGGTA	0.144
TAACCTAA	-0.148
CTGAAGAA	-0.0648
CTCACCAC	-0.106
GAATTGGC	-0.0131
ATAAACAT	0.11
GTATGCAA	-0.0515
CTCTAGAA	-0.226
GGGAGAGA	-0.249
CCTTGGGC	-0.113
AGCTTTAG	-0.267

Sequence	PBM E-score
TCATATAA	0.0554
TAAATTCA	-0.186
CCACCAGA	-0.0864
GTACATCA	0.0697
ATCGAATA	-0.219
AGCTGCCT	-0.202
AAGGCGAG	-0.147
GTTGAAAA	-0.0805
ATGGCCAC	-0.293
TAAGAGGA	-0.138
ATGAAAAT	0.112
CAGTTCAG	-0.0523
AAAATTAC	-0.16
CTGTAAGA	-0.182
CCGTCTAA	0.262
AGTGACTA	-0.132
ACAGATGC	-0.121
AACCGACT	-0.0007
CGACTGCA	-0.0585
AACAAACC	0.032
CGCCGCGA	0.224
GTTAACTA	0.106
CGTCCCAA	0.0218
CTCACCCC	0.0597
CATCTCCC	0.155

Sequence	PBM E-score
AGGCCATG	-0.167
GCAAAAAC	-0.138
CTCAAGAC	-0.108
ACCTATAG	-0.317
TCAGTAAA	-0.00839
CCTCATAC	-0.0938
AGTAACAC	0.064
CTCGGGAA	0.301
CTAGCGCA	-0.251
CCAGACTA	-0.118
TACATGTA	-0.0105
CCCCCCAC	-0.324
CCAATTAG	-0.0252
ATGGGACC	-0.0251
CAGGGAGC	-0.14
CATAACTA	-0.115
GAGGAGAA	-0.226
CGGGTACG	0.145
CTTAGCCA	-0.107
CTCAGTGC	0.0149
CAGAGCTA	-0.327
AAAAGATT	0.0508
CGCACAAG	0.0112
CAATACAA	0.0666
GGTGCCTA	-0.147

Sequence	PBM E-score
CACATTTC	0.136
TAATAGTA	0.113
ATCGGAAG	0.359
CCTAGGAG	-0.0519
GGGCGGAA	0.414
AACGGACT	0.0833
ACGGCACA	-0.0224
ACATCCAA	-0.0543
GTCCTCCA	-0.0693
GTTTATTA	0.141
CCCTAAAA	-0.187
GTCGGCCA	-0.0997
ACCAAGCG	-0.0407
CCGATCAA	0.13
GGATGAAC	0.0959
GAAGCAGC	0.0452
AGGTAGCC	-0.113
CATCGGCC	0.202
CATATTGC	-0.113
ACAGCCTG	-0.311
CGGCACAC	0.239
CATGATGG	-0.219
